The list shows a part of the results. At the low end of the ranking the order means little.
biological target: GST-SBP-SLBP (stem-loop binding protein) (UniProt Q14493); assay: targeted RNA Bind-n-Seq; settings: RBNS binding buffer: 25 mM Tris pH 7.5, 150 mM KCl, 3 mM MgCl2, 0.1% Tween, 0.5 mg/mL BSA, 1 mM DTT; 27 nM protein, 750 pM RNA pool; temperature not stated; high values mean tight binding;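 also: DESeq read counts versus GST-SBP nonspecific binding control pulldown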

| Sequence | binding signal (log2 fold change) |
| --- | --- |
| GGUCACGUCUCAAUCAACUCUUUCUCCAGGGAAACCCCUGGCAAACUCAACAGCUCGCAGUCAAG | -0.057 |
| GGUCACGUCUCAAUCAACUCAUUCCCAGGAGUUUUCUCCUGCAUAGUCAACAGCUCGCAGUCAAG | 0.16 |
| GGUCACGUCUCAAUCAACUCUUCCUCCAGGGAAAUCCCUGGUUUAUUCAACAGCUCGCAGUCAAG | -0.144 |
| GGUCACGUCUCAAUCAACUCUCCUGAGGGGGGGAAAACCCCUUUACCCUCUUAAUCAACAGCUCGCAGUCAAG | -0.311 |
| GGUCACGUCUCAAUCAACUCUAUCUCAGGAGUUUACUCCUGCAUACUCAACAGCUCGCAGUCAAG | 0.00323 |
| GGUCACGUCUCAAUCAACUCUUUCCCAGGAGUUUACUCCUGUUAUUUCAACAGCUCGCAGUCAAG | 0.138 |
| GGUCACGUCUCAAUCAACUCAAUCUCAGGAGUUUUCUCCUGUAUUCUCAACAGCUCGCAGUCAAG | 0.238 |
| GGUCACGUCUCAAUCAACUCAGUCUCCAGGGAAAUCCCUGGCUUUUUCAACAGCUCGCAGUCAAG | 0.172 |
| GGUCACGUCUCAAUCAACUCUUUUUCCAGGGAAAGCCCUGGCUUUUUCAACAGCUCGCAGUCAAG | 0.208 |
| GGUCACGUCUCAAUCAACUCAUCCUCAGGAGUUUCCUCCUGUUAAGUCAACAGCUCGCAGUCAAG | 0.328 |
| GGUCACGUCUCAAUCAACUCAAAGGAGGGGGGGAAAACCCCUUUACCCUCAUCGUCAACAGCUCGCAGUCAAG | 0.138 |
| GGUCACGUCUCAAUCAACUCAUUUUCAGGAGUUUCCUCCUGUUAACUCAACAGCUCGCAGUCAAG | -0.076 |
| GGUCACGUCUCAAUCAACUCAUACGAGGGGGGGAAAACCCCUUUACCCUCAUCAUCAACAGCUCGCAGUCAAG | 0.144 |
| GGUCACGUCUCAAUCAACUCUAAGGAGGGGGGGAAAACCCCUUUACCCUCACCAUCAACAGCUCGCAGUCAAG | -0.284 |
| GGUCACGUCUCAAUCAACUCAUUCCCAGGAGUUUCCUCCUGCAUAUUCAACAGCUCGCAGUCAAG | 0.189 |
| GGUCACGUCUCAAUCAACUCUCACGAGGGGGGGAAAACCCCUUUACCCUCCAAAUCAACAGCUCGCAGUCAAG | -0.14 |
| GGUCACGUCUCAAUCAACUCAACUUCAGGAGUUUACUCCUGCUAUCUCAACAGCUCGCAGUCAAG | -0.0186 |
| GGUCACGUCUCAAUCAACUCUUCGUCCAGGGAAAUCCCUGGCUAAUUCAACAGCUCGCAGUCAAG | -0.204 |
| GGUCACGUCUCAAUCAACUCUUUUUCCAGGGAAAUCCCUGGCAGUCUCAACAGCUCGCAGUCAAG | 0.0895 |
| GGUCACGUCUCAAUCAACUCAUUUCCCAGGGAAAUCCCUGGUAAUUUCAACAGCUCGCAGUCAAG | -0.0308 |
| GGUCACGUCUCAAUCAACUCUUUUCCCAGGGAAAUCCCUGGCUUAUUCAACAGCUCGCAGUCAAG | 0.04 |
| GGUCACGUCUCAAUCAACUCAACUUCAGGAGUUUACUCCUGCAAUUUCAACAGCUCGCAGUCAAG | -0.0602 |
| GGUCACGUCUCAAUCAACUCUUCGUCCAGGGAAAUCCCUGGUAAAUUCAACAGCUCGCAGUCAAG | 0.00514 |
| GGUCACGUCUCAAUCAACUCAUCCUCCAGGGAAAACCCUGGCUAUUUCAACAGCUCGCAGUCAAG | 0.0579 |
| GGUCACGUCUCAAUCAACUCACAAGAGGGGGGGAAAACCCCUUUGCCCUCACAAUCAACAGCUCGCAGUCAAG | 0.0571 |

| Sequence | binding signal (log2 fold change) |
| --- | --- |
| GGUCACGUCUCAAUCAACUCAUCUCCAGGAGUUUACUCCUGCAAAUUCAACAGCUCGCAGUCAAG | 0.0961 |
| GGUCACGUCUCAAUCAACUCUUCCUCCAGGGAAAACCCUGGUUUUCUCAACAGCUCGCAGUCAAG | 0.0178 |
| GGUCACGUCUCAAUCAACUCUUAAGAGGGGGGGAAAACCCCUUUGCCCUCAUCGUCAACAGCUCGCAGUCAAG | 0.171 |
| GGUCACGUCUCAAUCAACUCAAUCCCAGGAGUUUCCUCCUGCAUACUCAACAGCUCGCAGUCAAG | 0.0816 |
| GGUCACGUCUCAAUCAACUCCUUCGAGGGGGGGAAAACCCCUUUACCCUCUUCAUCAACAGCUCGCAGUCAAG | 0.429 |
| GGUCACGUCUCAAUCAACUCGCACGAGGGGGGGAAAACCCCUUUACCCUCAACAUCAACAGCUCGCAGUCAAG | -0.433 |
| GGUCACGUCUCAAUCAACUCUUUUUCAGGAGUUUUCUCCUGUUAUGUCAACAGCUCGCAGUCAAG | 0.129 |
| GGUCACGUCUCAAUCAACUCUACUCCAGGAGUUUCCUCCUGUAUACUCAACAGCUCGCAGUCAAG | 0.136 |
| GGUCACGUCUCAAUCAACUCAACUCCCAGGGAAAACCCUGGCAAUUUCAACAGCUCGCAGUCAAG | -0.171 |
| GGUCACGUCUCAAUCAACUCAAUCCCCAGGGAAAUCCCUGGUAAACUCAACAGCUCGCAGUCAAG | -0.195 |
| GGUCACGUCUCAAUCAACUCUAUCUCCAGGGAAAGCCCUGGUAUUUUCAACAGCUCGCAGUCAAG | -0.141 |
| GGUCACGUCUCAAUCAACUCAAUUCCAGGAGUUUACUCCUGUAUACUCAACAGCUCGCAGUCAAG | 0.157 |
| GGUCACGUCUCAAUCAACUCUUCUUCCAGGGAAAGCCCUGGUAAACUCAACAGCUCGCAGUCAAG | -0.221 |
| GGUCACGUCUCAAUCAACUCAUUUUCAGGAGUUUUCUCCUGCUAUCUCAACAGCUCGCAGUCAAG | 0.208 |
| GGUCACGUCUCAAUCAACUCAAAAGAGGGGGGGAAAACCCCUUUACCCUCCAAAUCAACAGCUCGCAGUCAAG | 0.159 |
| GGUCACGUCUCAAUCAACUCAACUUCCAGGGAAAACCCUGGUUUUCUCAACAGCUCGCAGUCAAG | 0.0504 |
| GGUCACGUCUCAAUCAACUCUUCCCCCAGGGAAAUCCCUGGUAUAUUCAACAGCUCGCAGUCAAG | -0.0643 |
| GGUCACGUCUCAAUCAACUCUAUCUCCAGGGAAAACCCUGGCUAUCUCAACAGCUCGCAGUCAAG | -0.049 |
| GGUCACGUCUCAAUCAACUCUAUCCCCAGGGAAAUCCCUGGCAAUUUCAACAGCUCGCAGUCAAG | -0.14 |
| GGUCACGUCUCAAUCAACUCAUCCUCCAGGGAAACCCCUGGUAUUUUCAACAGCUCGCAGUCAAG | 0.00703 |
| GGUCACGUCUCAAUCAACUCUUUUCCAGGAGUUUCCUCCUGCAUAUUCAACAGCUCGCAGUCAAG | 0.067 |
| GGUCACGUCUCAAUCAACUCUCAAGAGGGGGGGAAAACCCCUUUACCCUCCCAUUCAACAGCUCGCAGUCAAG | 0.0144 |
| GGUCACGUCUCAAUCAACUCAAUUCCAGGAGUUUUCUCCUGCAUACUCAACAGCUCGCAGUCAAG | 0.103 |
| GGUCACGUCUCAAUCAACUCUAAAGAGGGGGGGAAAACCCCUUUGCCCUCCAAAUCAACAGCUCGCAGUCAAG | 0.218 |
| GGUCACGUCUCAAUCAACUCAUUUCCAGGAGUUUUCUCCUGCUUUUUCAACAGCUCGCAGUCAAG | 0.0331 |

| Sequence | binding signal (log2 fold change) |
| --- | --- |
| GGUCACGUCUCAAUCAACUCUCCUGAGGGGGGGAAAACCCCUUUACCCUCUAUAUCAACAGCUCGCAGUCAAG | 0.0841 |
| GGUCACGUCUCAAUCAACUCAUCUCCAGGAGUUUACUCCUGUUAAUUCAACAGCUCGCAGUCAAG | 0.0263 |
| GGUCACGUCUCAAUCAACUCUUUUUCCAGGGAAACCCCUGGCUAACUCAACAGCUCGCAGUCAAG | 0.268 |
| GGUCACGUCUCAAUCAACUCAUUUUCAGGAGUUUCCUCCUGCAUAGUCAACAGCUCGCAGUCAAG | 0.135 |
| GGUCACGUCUCAAUCAACUCAACUCCCAGGGAAACCCCUGGCUUUUUCAACAGCUCGCAGUCAAG | -0.289 |
| GGUCACGUCUCAAUCAACUCUUUCCCCAGGGAAAUCCCUGGUUAAUUCAACAGCUCGCAGUCAAG | -0.03 |
| GGUCACGUCUCAAUCAACUCAAUCUCCAGGGAAACCCCUGGCUAUUUCAACAGCUCGCAGUCAAG | 0.00273 |
| GGUCACGUCUCAAUCAACUCUUCUCCCAGGGAAACCCCUGGUAAUGUCAACAGCUCGCAGUCAAG | 0.0213 |
| GGUCACGUCUCAAUCAACUCUUCCCCAGGAGUUUACUCCUGUAUAUUCAACAGCUCGCAGUCAAG | -0.211 |
| GGUCACGUCUCAAUCAACUCAGUUUCAGGAGUUUACUCCUGCUAUUUCAACAGCUCGCAGUCAAG | -0.119 |
| GGUCACGUCUCAAUCAACUCCAUAGAGGGGGGGAAAACCCCUUUACCCUCAUCCUCAACAGCUCGCAGUCAAG | 0.286 |
| GGUCACGUCUCAAUCAACUCAAUCUCCAGGGAAACCCCUGGCAAAUUCAACAGCUCGCAGUCAAG | 0.253 |
| GGUCACGUCUCAAUCAACUCUUCGGCAGGAGUUUACUCCUGGAUAUUCAACAGCUCGCAGUCAAG | 0.0367 |
| GGUCACGUCUCAAUCAACUCAUCCCCCAGGGAAAGCCCUGGCAAAUUCAACAGCUCGCAGUCAAG | 0.103 |
| GGUCACGUCUCAAUCAACUCCUUAGAGGGGGGGAAAACCCCUUUGCCCUCACUUUCAACAGCUCGCAGUCAAG | -0.00473 |
| GGUCACGUCUCAAUCAACUCUAUCCCAGGAGUUUACUCCUGCAAAUUCAACAGCUCGCAGUCAAG | -0.124 |
| GGUCACGUCUCAAUCAACUCAUCCCCAGGAGUUUCCUCCUGUUAUCUCAACAGCUCGCAGUCAAG | -0.0634 |
| GGUCACGUCUCAAUCAACUCUUCGUCCAGGGAAACCCCUGGCAAUUUCAACAGCUCGCAGUCAAG | 0.00791 |
| GGUCACGUCUCAAUCAACUCUACUCCAGGAGUUUACUCCUGUAUUCUCAACAGCUCGCAGUCAAG | -0.0668 |
| GGUCACGUCUCAAUCAACUCUUCUUCCAGGGAAAGCCCUGGUUAUCUCAACAGCUCGCAGUCAAG | 0.115 |
| GGUCACGUCUCAAUCAACUCUUAAGAGGGGGGGAAAACCCCUUUGCCCUCGUAUUCAACAGCUCGCAGUCAAG | -0.295 |
| GGUCACGUCUCAAUCAACUCUUCUCCAGGAGUUUCCUCCUGUAAUGUCAACAGCUCGCAGUCAAG | -0.083 |
| GGUCACGUCUCAAUCAACUCUAAAGAGGGGGGGAAAACCCCUUUGCCCUCACCUUCAACAGCUCGCAGUCAAG | -0.382 |
| GGUCACGUCUCAAUCAACUCAAUCUCCAGGGAAAUCCCUGGCAUAGUCAACAGCUCGCAGUCAAG | 0.00803 |
